# Hit rate of the full screen: of about 48,000 compounds, about 120 (0.25%) were called active. Roughly 4% stayed inconclusive and do not appear here. Calls come from the whole dose curve; as a rule, active = well fitted activation curve with a large enough effect; inconclusive = small, poorly fitted or top-dose-only effect, or another doubt; inactive = no such curve, though single readings can be large or run the other way. This is one part of the list.
# Assay: Primary qHTS for Identification of Small Molecule Activators of Huntingtin-Antisense Promoter Activity; note: nearly all actives have a fitted effect of over 55% in size
# Settings: HEK293 HTT-AS promoter firefly luciferase reporter, 24 h; series mostly up to 57.5 µM; activity change, positive = activation: at the top concentration
# Method in brief: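 Firefly luciferase signal from promoter-reporter HEK293 cells was scaled between vehicle (0%) and zero RLU (-100%). Compounds were tested at final concentrations of up to 57.5 uM over 24 h at 37 degrees C. PTC124 at 50 uM final served as control inhibitor.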
row,SMILES,"activity change, positive = activation"
1,Cc1ccc(S(=O)(=O)c2nnn3c2nc(N2CCN(c4ccc(F)cc4)CC2)c2cc(Cl)ccc23)cc1C,inactive: 24.4%
2,O=C(COC(=O)CCCC1=NS(=O)(=O)c2ccccc2N1)Nc1ccc(Br)cc1,inactive: -18.9%
3,COc1cccc(-n2c(=O)c3c(C)c(C(=O)N(C)C)sc3n(CC(=O)NCCc3ccc(OC)c(OC)c3)c2=O)c1,inactive: -9.08%
4,Cc1cccc(NC(=O)N2CCc3c(sc4c3CCCC4)C2c2ccc(F)cc2)c1 (stereo not drawn),inactive: -24.4%
5,NC(=O)c1cccnc1,inactive
6,OCc1ccc(-c2nn(Cc3ccccc3)c3ccccc23)o1,inactive: -53.8%
7,CCc1ccc(NC(=O)CSc2nc3nccnc3c(=O)n2CCc2c[nH]c3ccccc23)cc1,inactive: -22.5%
8,CCc1ccc(NC(=O)C2CCN(C(=O)N3CC(CC)Oc4ccccc43)CC2)cc1 (stereo not drawn),inactive: -25.5%
9,COc1cccc(NC(=O)CCNS(=O)(=O)c2ccc(Br)s2)c1,inactive: -15.5%
10,COc1ccc(CNC(=O)Cc2csc3ccccc23)cc1OC,inactive: 6.51%
11,CCc1nn(CC(=O)N2CCCCC2)c(=O)c2cc3sccc3n12,inactive: -15%
12,CC(NC(=O)c1cc(Sc2ccc(F)cc2F)nc2ccccc12)c1ccccc1 (stereo not drawn),inactive: -28.4%
13,CCc1ccccc1NC(=O)C1CCC(CNS(=O)(=O)c2ccc3c(c2)CC(C)N3C(C)=O)CC1 (stereo not drawn),inactive: -22%
14,COc1ccc2nc(NC(=O)c3nc(SCc4ccc(F)cc4)ncc3Cl)sc2c1,inactive: 9.44%
15,Cc1cn2c(=O)c(S(=O)(=O)NCCc3ccccc3)c(C)nc2s1,inactive: -12.5%
16,CCOc1ccc(-c2nnc(SCC(=O)NCCC(C)C)nc2-c2ccc(OCC)c(OC)c2)cc1OC,inactive: -1.94%
17,CC(C)OCCCNC(=O)c1ccc(-n2c(-c3ccccc3)cc3c2CCCC3)cc1,inactive: 4.43%
18,COc1cccc(C(=O)NCC(c2ccc(N(C)C)cc2)N2CCCC2)c1OC (stereo not drawn),inactive: 6.28%
19,CC(C)CN1CCc2nc(N3CCN(c4ncccn4)CC3)ncc2C1,inactive: 15.8%
20,COc1cc(-c2noc(-c3ccc(NCc4cccnc4)c([N+](=O)[O-])c3)n2)cc(OC)c1OC,inactive: -8.38%
21,COc1ccc(OC)c(CNC(=O)CCCn2ccc3cc(S(=O)(=O)N4CCCC4)ccc32)c1,inactive: -24%
22,CCOc1ccc(CNC(=O)CCC(=O)N2CC(C)Sc3ccccc32)cc1 (stereo not drawn),inactive: -3.36%
23,CCOc1ccc(CCNC(=O)CCCn2nc(C)c3sc4ccccc4c3c2=O)cc1OCC,inactive: -31.3%
24,O=C(CSc1nccn1-c1ccccc1)Nc1nc2ccccc2s1,inactive: 3.79%

row,SMILES,"activity change, positive = activation"
1,CCn1c2ccccc2c2nnc(SCCN3CCCCC3)nc21,inactive: -2.77%
2,N#C/C(=C/c1cn(Cc2ccc(F)cc2)c2ccccc12)C(=O)Nc1cccc(Cl)c1,inactive: -18.9%
3,COc1ccccc1Nc1nn2c(=O)c3ccc(C(=O)NCCCOC(C)C)cc3nc2s1,inactive: -30.5%
4,COC(=O)CC1c2cc(OC)c(OC)cc2CCN1C(=O)Nc1ccc(C)cc1Cl (stereo not drawn),inactive: 9.63%
5,CCOc1ccc(OCC)c(NC(=O)Cn2ncc3c4ccccc4n(Cc4ccccc4)c3c2=O)c1,inactive: -4.43%
6,CCc1ccc(CNC(=O)c2cccc(-n3cnc4cccnc43)c2C)cc1,inactive: -20.7%
7,CCC1CN(C(=O)N2CCC(C(=O)NCCN(C)C)CC2)c2ccccc2O1 (stereo not drawn),inactive: -3.16%
8,Cn1ccc2cc(S(=O)(=O)N3CCCN(C(=O)Nc4ccccc4Br)CC3)ccc21,inactive: -25.6%
9,Cc1ccc(NC(=O)c2cnc(SCC(=O)N3CCOCC3)n(C)c2=O)cc1,inactive: -14.9%
10,COc1cc2ccccc2cc1C(=O)Nc1cccc(-c2nc3cc(C)c(C)cc3o2)c1C,inactive: -11.4%
11,COc1ccc2oc(=O)c(C(=O)NCCc3c(C)[nH]c4c(Cl)cccc34)cc2c1,inactive: -14%
12,O=C(Nc1cccc(Cl)c1Cl)c1ccc2c(c1)N(Cc1cccc(Cl)c1)C(=O)c1ccccc1S2(=O)=O,inactive: -13.9%
13,Cc1nc2nc(NCc3cccc(Br)c3)[nH]n2c(=O)c1Cc1ccccc1,inactive: 1.73%
14,CCc1ccccc1NC(=O)N1CCN(c2cc(-c3noc(C)n3)ccc2C)CC1,inactive: -21.8%
15,CCOC(=O)c1cccc(NC(=O)C(CC(C)C)N2Cc3ccccc3C2=O)c1 (stereo not drawn),inactive: -24%
16,Cc1ccc(CN(C(=O)COc2cccc([N+](=O)[O-])c2)c2ccccn2)o1,inactive: -22.5%
17,O=S(=O)(Nc1ccc(Cl)cc1)c1ccc(NS(=O)(=O)c2ccc3c(c2)OCCO3)cc1,inactive: -20.8%
18,Cn1nnnc1SCCNCc1ccc(F)cc1,inactive: -7.98%
19,CCC(C)NC(=O)c1cnn(-c2ccc(Cl)cc2)c1C1CCN(C(=O)OC(C)(C)C)CC1 (stereo not drawn),inactive: -10.2%
20,O=C(NCCc1ccc(Cl)cc1)c1ccc(CS(=O)Cc2cccc(Cl)c2)o1 (stereo not drawn),inactive: -36.9%
21,Nc1nnc(SCC(=O)Nc2ccccc2C(F)(F)F)s1,inactive: -10%
22,COC(=O)c1n[nH]n(-c2ccccc2)c1=O,inactive: 0.499%
23,CN(C1CCCCC1)S(=O)(=O)c1ccc2c(c1)c(=O)c(C(=O)NCCc1ccccc1)cn2C,"inactive: 10.6% [at 11.5 µM, percent change from vehicle, -100% = no light]"
24,Cc1cccc(NC(=O)C2CCCN(S(=O)(=O)c3cnc[nH]3)C2)c1C (stereo not drawn),"inactive: -17.1% [at 11.5 µM, percent change from vehicle, -100% = no light]"

# Reference: PubChem BioAssay AID1508624 (National Center for Advancing Translational Sciences (NCATS), 2021)
